The name of at least one read-out is uncertain. Numbered stars: 1 amine (or outer) side, 2 acyl side, 3 side chain; on linkers, the order of the positions; unused ones are H or OH. Bridge positions count the residues as written; N and C are the ends. Side chains are listed from the residue outwards. Peptide text beside a SMILES is read from it. * marks the point of attachment. C20 diacid = O=C(O)CCCCCCCCCCCCCCCCCCC(=O)*; γGlu = O=C(O)[C@H](CCC(=O)[*:2])N[*:1]; AEEA = NCCOCCOCC(=O)O
Assay: ASSAY (III) ThT fibrillation assay for physical stability
Type: physicochemical
In short: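 Physical stability scored by ThT fluorescence (444 nm excitation, 485 nm emission) tracked every 20 min during 37 °C incubation with 960 rpm shaking, ThT at 1 μM final. Values are replicate means with SD at chosen times; HPLC against pramlintide standard gives initial and post-assay soluble concentrations.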

Point of comparison: `CC[C@H](C)[C@H](NC(=O)[C@H](C)NC(=O)CNC(=O)[C@H](Cc1ccccc1)NC(=O)[C@H](CC(N)=O)NC(=O)[C@@H]1CCCN1C(=O)[C@H](CO)NC(=O)[C@H](CO)NC(=O)[C@H](Cc1c[nH]cn1)NC(=O)[C@H](CCCNC(=N)N)NC(=O)[C@H](CC(C)C)NC(=O)[C@H](Cc1ccccc1)NC(=O)[C@H](Cc1c[nH]cn1)NC(=O)[C@H](C)NC(=O)[C@H](CC(C)C)NC(=O)[C@H](CCCNC(=N)N)NC(=O)[C@H](CCC(N)=O)NC(=O)[C@@H](NC(=O)[C@H](C)NC(=O)[C@@H]1CSSC[C@H](NC(=O)[C@@H](N)CCCCNC(=O)COCCOCCNC(=O)CC[C@H](NC(=O)CCCCCCCCCCCCCCCCCCC(=O)O)C(=O)O)C(=O)N[C@@H](CC(N)=O)C(=O)N[C@@H]([C@@H](C)O)C(=O)N[C@@H](C)C(=O)N[C@@H]([C@@H](C)O)C(=O)N1)[C@@H](C)O)C(=O)N1CCC[C@H]1C(=O)N[C@@H](CO)C(=O)N[C@@H](CO)C(=O)N[C@H](C(=O)N[C@@H](CC(N)=O)C(=O)N[C@H](C(=O)NCC(=O)N[C@@H](CCCNC(=N)N)C(=O)N[C@@H](CC(N)=O)C(=O)N[C@H](C(=O)N[C@@H](Cc1ccc(O)cc1)C(N)=O)[C@@H](C)O)C(C)C)[C@@H](C)O` [Example 84] (H-K([AEEA-γGlu-C20 diacid])CNTATCATQRLAHFLRHSSPNFGAIPSSTNVGRNTY-NH2; disulfide 2-7 (inferred); N-terminus assumed), “ThT pH 4.0 recovery (%)” value 100%. Against it:
- CC[C@H](C)[C@H](NC(=O)[C@H](C)NC(=O)CNC(=O)[C@H](Cc1ccccc1)NC(=O)[C@H](CC(N)=O)NC(=O)[C@@H]1CCCN1C(=O)[C@H](CO)NC(=O)[C@H](CO)NC(=O)[C@H](Cc1c[nH]cn1)NC(=O)[C@H](CCCNC(=N)N)NC(=O)[C@H](CC(C)C)NC(=O)[C@H](Cc1ccccc1)NC(=O)[C@H](CCCNC(=N)N)NC(=O)[C@H](C)NC(=O)[C@H](CC(C)C)NC(=O)[C@H](CCCNC(=N)N)NC(=O)[C@H](CCC(N)=O)NC(=O)[C@@H](NC(=O)[C@H](C)NC(=O)[C@@H]1CSSC[C@H](NC(=O)[C@@H](N)CCCCNC(=O)COCCOCCNC(=O)CC[C@H](NC(=O)CCCCCCCCCCCCCCCCCCC(=O)O)C(=O)O)C(=O)N[C@@H](CC(N)=O)C(=O)N[C@@H]([C@@H](C)O)C(=O)N[C@@H](C)C(=O)N[C@@H]([C@@H](C)O)C(=O)N1)[C@@H](C)O)C(=O)N1CCC[C@H]1C(=O)N[C@@H](CO)C(=O)N[C@@H](CO)C(=O)N[C@H](C(=O)N[C@@H](CC(N)=O)C(=O)N[C@H](C(=O)NCC(=O)N[C@@H](CO)C(=O)N[C@@H](CC(N)=O)C(=O)N[C@H](C(=O)N[C@@H](Cc1ccc(O)cc1)C(N)=O)[C@@H](C)O)C(C)C)[C@@H](C)O [Example 82] (H-K([AEEA-γGlu-C20 diacid])CNTATCATQRLARFLRHSSPNFGAIPSSTNVGSNTY-NH2; disulfide 2-7; N-terminus assumed) — lower, 63%
- CC[C@H](C)[C@H](NC(=O)[C@H](C)NC(=O)CNC(=O)[C@H](Cc1ccccc1)NC(=O)[C@H](CC(N)=O)NC(=O)[C@@H]1CCCN1C(=O)[C@H](CO)NC(=O)[C@H](CO)NC(=O)[C@H](Cc1c[nH]cn1)NC(=O)[C@H](CCCNC(=N)N)NC(=O)[C@H](CC(C)C)NC(=O)[C@H](Cc1ccccc1)NC(=O)[C@H](CCCNC(=N)N)NC(=O)[C@H](C)NC(=O)[C@H](CC(C)C)NC(=O)[C@H](CCCNC(=N)N)NC(=O)[C@H](CCC(N)=O)NC(=O)[C@@H](NC(=O)[C@H](C)NC(=O)[C@@H]1CSSC[C@H](NC(=O)[C@@H](N)CCCCNC(=O)CC[C@H](NC(=O)CCCCCCCCCCCCCCCCCCC(=O)O)C(=O)O)C(=O)N[C@@H](CC(N)=O)C(=O)N[C@@H]([C@@H](C)O)C(=O)N[C@@H](C)C(=O)N[C@@H]([C@@H](C)O)C(=O)N1)[C@@H](C)O)C(=O)N1CCC[C@H]1C(=O)N[C@@H](CO)C(=O)N[C@@H](CO)C(=O)N[C@H](C(=O)N[C@@H](CC(N)=O)C(=O)N[C@H](C(=O)NCC(=O)N[C@@H](CO)C(=O)N[C@@H](CC(N)=O)C(=O)N[C@H](C(=O)N[C@@H](Cc1ccc(O)cc1)C(N)=O)[C@@H](C)O)C(C)C)[C@@H](C)O [Example 83] — lower, 79%
- CC[C@H](C)[C@H](NC(=O)[C@H](C)NC(=O)CNC(=O)[C@H](Cc1ccccc1)NC(=O)[C@H](CC(N)=O)NC(=O)[C@@H]1CCCN1C(=O)[C@H](CO)NC(=O)[C@H](CO)NC(=O)[C@H](Cc1c[nH]cn1)NC(=O)[C@H](CCCNC(=N)N)NC(=O)[C@H](CC(C)C)NC(=O)[C@H](Cc1ccccc1)NC(=O)[C@H](Cc1c[nH]cn1)NC(=O)[C@H](C)NC(=O)[C@H](CC(C)C)NC(=O)[C@H](CCCNC(=N)N)NC(=O)[C@H](CCC(N)=O)NC(=O)[C@@H](NC(=O)[C@H](C)NC(=O)[C@@H]1CSSC[C@H](NC(=O)[C@@H](N)CCCCNC(=O)CC[C@H](NC(=O)CCCCCCCCCCCCCCCCCCC(=O)O)C(=O)O)C(=O)N[C@@H](CC(N)=O)C(=O)N[C@@H]([C@@H](C)O)C(=O)N[C@@H](C)C(=O)N[C@@H]([C@@H](C)O)C(=O)N1)[C@@H](C)O)C(=O)N1CCC[C@H]1C(=O)N[C@@H](CO)C(=O)N[C@@H](CO)C(=O)N[C@H](C(=O)N[C@@H](CC(N)=O)C(=O)N[C@H](C(=O)NCC(=O)N[C@@H](CCCNC(=N)N)C(=O)N[C@@H](CC(N)=O)C(=O)N[C@H](C(=O)N[C@@H](Cc1ccc(O)cc1)C(N)=O)[C@@H](C)O)C(C)C)[C@@H](C)O [Example 85] (H-K([γGlu-C20 diacid])CNTATCATQRLAHFLRHSSPNFGAIPSSTNVGRNTY-NH2; disulfide 2-7 (inferred); N-terminus assumed) — the same, 100%
- CC[C@H](C)[C@H](NC(=O)[C@H](C)NC(=O)CNC(=O)[C@H](Cc1ccccc1)NC(=O)[C@H](CC(N)=O)NC(=O)[C@@H]1CCCN1C(=O)[C@H](CO)NC(=O)[C@H](CO)NC(=O)[C@H](Cc1c[nH]cn1)NC(=O)[C@H](CCCNC(=N)N)NC(=O)[C@H](CC(C)C)NC(=O)[C@H](Cc1ccccc1)NC(=O)[C@H](CC(N)=O)NC(=O)[C@H](C)NC(=O)[C@H](CC(C)C)NC(=O)[C@H](CCCNC(=N)N)NC(=O)[C@H](CCC(N)=O)NC(=O)[C@@H](NC(=O)[C@H](C)NC(=O)[C@@H]1CSSC[C@H](NC(=O)[C@@H](N)CCCCNC(=O)CC[C@H](NC(=O)CC[C@H](NC(=O)CCCCCCCCCCCCCCCCCCC(=O)O)C(=O)O)C(=O)O)C(=O)N[C@@H](CC(N)=O)C(=O)N[C@@H]([C@@H](C)O)C(=O)N[C@@H](C)C(=O)N[C@@H]([C@@H](C)O)C(=O)N1)[C@@H](C)O)C(=O)N1CCC[C@H]1C(=O)N[C@@H](CO)C(=O)N[C@@H](CO)C(=O)N[C@H](C(=O)N[C@@H](CC(N)=O)C(=O)N[C@H](C(=O)NCC(=O)N[C@@H](Cc1c[nH]cn1)C(=O)N[C@@H](CC(N)=O)C(=O)N[C@H](C(=O)N[C@@H](Cc1ccc(O)cc1)C(N)=O)[C@@H](C)O)C(C)C)[C@@H](C)O [Example 86] (H-K([γGlu-γGlu-C20 diacid])CNTATCATQRLANFLRHSSPNFGAIPSSTNVGHNTY-NH2; disulfide 2-7) — lower, 60%
- CC[C@H](C)[C@H](NC(=O)[C@H](C)NC(=O)CNC(=O)[C@H](Cc1ccccc1)NC(=O)[C@H](CC(N)=O)NC(=O)[C@@H]1CCCN1C(=O)[C@H](CO)NC(=O)[C@H](CO)NC(=O)[C@H](Cc1c[nH]cn1)NC(=O)[C@H](CCCNC(=N)N)NC(=O)[C@H](CC(C)C)NC(=O)[C@H](Cc1ccccc1)NC(=O)[C@H](CCC(=O)O)NC(=O)[C@H](C)NC(=O)[C@H](CC(C)C)NC(=O)[C@H](CCCNC(=N)N)NC(=O)[C@H](CCC(N)=O)NC(=O)[C@@H](NC(=O)[C@H](C)NC(=O)[C@@H]1CSSC[C@H](NC(=O)[C@@H](N)CCCCNC(=O)CC[C@H](NC(=O)CC[C@H](NC(=O)CCCCCCCCCCCCCCCCCCC(=O)O)C(=O)O)C(=O)O)C(=O)N[C@@H](CC(N)=O)C(=O)N[C@@H]([C@@H](C)O)C(=O)N[C@@H](C)C(=O)N[C@@H]([C@@H](C)O)C(=O)N1)[C@@H](C)O)C(=O)N1CCC[C@H]1C(=O)N[C@@H](CO)C(=O)N[C@@H](CO)C(=O)N[C@H](C(=O)N[C@@H](CC(N)=O)C(=O)N[C@H](C(=O)NCC(=O)N[C@@H](Cc1c[nH]cn1)C(=O)N[C@@H](CC(N)=O)C(=O)N[C@H](C(=O)N[C@@H](Cc1ccc(O)cc1)C(N)=O)[C@@H](C)O)C(C)C)[C@@H](C)O [Example 87] (H-K([γGlu-γGlu-C20 diacid])CNTATCATQRLAEFLRHSSPNFGAIPSSTNVGHNTY-NH2; disulfide 2-7) — lower, 74%
- CC[C@H](C)[C@H](NC(=O)[C@H](C)NC(=O)CNC(=O)[C@H](Cc1ccccc1)NC(=O)[C@H](CC(N)=O)NC(=O)[C@@H]1CCCN1C(=O)[C@H](CO)NC(=O)[C@H](CO)NC(=O)[C@H](Cc1c[nH]cn1)NC(=O)[C@H](CCCNC(=N)N)NC(=O)[C@H](CC(C)C)NC(=O)[C@H](Cc1ccccc1)NC(=O)[C@H](CCC(=O)O)NC(=O)[C@H](C)NC(=O)[C@H](CC(C)C)NC(=O)[C@H](CCCNC(=N)N)NC(=O)[C@H](CCC(N)=O)NC(=O)[C@@H](NC(=O)[C@H](C)NC(=O)[C@@H]1CSSC[C@H](NC(=O)[C@@H](N)CCCCNC(=O)CC[C@H](NC(=O)CC[C@H](NC(=O)CCCCCCCCCCCCCCCCCCC(=O)O)C(=O)O)C(=O)O)C(=O)N[C@@H](CC(N)=O)C(=O)N[C@@H]([C@@H](C)O)C(=O)N[C@@H](C)C(=O)N[C@@H]([C@@H](C)O)C(=O)N1)[C@@H](C)O)C(=O)N1CCC[C@H]1C(=O)N[C@@H](CO)C(=O)N[C@@H](CO)C(=O)N[C@H](C(=O)N[C@@H](CC(N)=O)C(=O)N[C@H](C(=O)NCC(=O)N[C@@H](CCCNC(=N)N)C(=O)N[C@@H](CC(N)=O)C(=O)N[C@H](C(=O)N[C@@H](Cc1ccc(O)cc1)C(N)=O)[C@@H](C)O)C(C)C)[C@@H](C)O [Example 88] (H-K([γGlu-γGlu-C20 diacid])CNTATCATQRLAEFLRHSSPNFGAIPSSTNVGRNTY-NH2; disulfide 2-7) — the same, 100%
